Data from the RNAGym collection of RNA variant scans (doi:10.7554/elife.90254).
The source gives no read counts; variants with many changes may rest on few reads.

B1: OR4K15 (parent)
chain: GUUAACGGUCAUAGGCCAUGGAAACUAGGAGCACCAUUUCGCUGCCAGUGAAGAAAUGAACAAAGAAAAUCUGGGCCAGGCAGGCAUCAAAAGAAAUAGUCUUGCGCUCAACCAGAAAGUCUGUAAUCAUUUUAAGGGUA

Variants of: B1
Test: self-cleavage, relative activity (ratio to wild type); higher = more cleavage; in vitro, sequencing; the parent is a self-cleaving ribozyme

Variant | self-cleavage
GUUAACGGUCAUAGGCCAUGGAAACAGGGAGCACCAUUUCGCUGCCAGUGUAGAAAUGAACAAAGAAAAUCUGGGCCAGGCAGGCAUCAAAAGAAAUAGUCUUGCGCUCAACCAGAAAGUCUGUAAUCAUUUUAAGGGUA [U26A A27G A51U] | 1.16
GUUAACGGCCAUAGGCCAUGGAAACUAGGAGCACCAUUUCGCUGCCAGUGAAGAAAUGAACAAAGAAAAUCAGGGCCAGGCAGGCAUCAAAAGAAAUAGCCUUGCACUCAACCAGAAAGUCUGUAAUCAUUUUAAGGGUA [U9C U72A U100C G106A] | 0.02
GUUAACGGUCAUAGGCCAUGGAAACUAGGAGCACCAUUCCGCUGCCAGUGAAGAAAUGAACAAAGAAAAUCUGGGCCAGGCAGGCAUCAAGAGAAGAAGUCUUGCGCUCAACCAGAAAGUCCGUAAUCAUUUUAAGGGUA [U39C A91G A96G U97A U122C] | 0.49
GUUAACGGUCAUAGGCCAUGGAUACUAGGAGCACCAUUUCGCUGCCAGUGAAGAAAUGAGCAAAGAAAAUCUGGGCCAGGCAGGCAUCAAAAGAGAUAGUCUUGCGCUCAGCCAGAAAGUCUGUAAUCAUUUUAAGGGUA [A23U A60G A95G A111G] | 0.02
GUUAACGGUCAUAGGCCAUGGAAACUAGGAGCACCAUUUCGCUGCCAGUGAAGAAAUGAACAAAGAAAAUCUGGGUCAGGUAGGCAUCAAAAGAAGUAGUCUUGCGCUCAGCCAGAAAGUCUGUAAUCAUUUUAAGGGUA [C76U C81U A96G A111G] | 0.01
GUUAACGGUCAUAGGCCAUGGAAACUAGGAGCACCAUUUCGCUGCCAGUGAAGAAAUGAGCAAAGAAAAUCUGGGCCAGGCAGGCAUCAAAAGAGAUAGCCUUGCGCUCAACCAGAAAGUCUGUAACCAUUUUAAGGGUA [A60G A95G U100C U127C] | 1.72
GUUAACGGUCAUAGGCCAUGGAAACUAGGAGCACCAUCUCGCGGCCAGUGAGGAAAUGAACAAAGAAAAUCUGGGCCAGGCAGGCAUCAAAAGAAAUAGUCUUGCGCUCAACCAGAAAGUCCGUAAUCAUUUUAAGGGUA [U38C U43G A52G U122C] | 0.55
GUUAACGGUCAUAGGCCAUGGAAACUAGGAGCACCAUUUCGCUGCCAGUGAAGAGAUGAACAAAGAAAAUCCGGGCCAGGCAGGCAUCAAGAGAAAUAGUCUUGCGCUCAACCAGAAAGUCUGUAAUCAUUUUAAGGGUA [A55G U72C A91G] | 0.16
GUUAACGGUCAUAGGCCAUGGAAACUAGGAGCACCAUUUCGCUGCCAGUGAAGAAAUGAACAAAGAAAAUCUGGGCCAGGCAGGCAUCAAAAGAAGUAGCCUUGCGCUCAACCAGAAAGUCUGUAUUCAUUUUAAGGGUA [A96G U100C A126U] | 1.78
GUUGACGGUCGUAGGCCAUGGAAACUAGGAGCACCUUUUCGCUGCCGGUGAAGAAAUGAACAAAGAAAAUCUGGGCCAGGCAGGCAUCAAAAGAAAUAGUCUUGCGCUCAACCAGAAAGUCUGUAAUCAUUUUAAGGGUA [A4G A11G A36U A47G] | 0.87
GUUAACGGUCAUAGGCCAUGGAAACCAGGGGCACCAUUUCGCUGCCAGUGAAGAAAUGAACAAAGAAAAUCUGGGCCGGGCAGGCAUCAAAAGAAAUGGUCUUGCGCUCAACCAGAAAGUCUGUAAUCAUUUUAAGGGUA [U26C A30G A78G A98G] | 0.12
GUUAACGGUCAUAGGCCAUGGAAACCAGGAGCACCAUUUCGCUGCCAGUGAAGAAAUGAACAAAGAAAAUCCGGGCCAGGCAGGCAUCAAAAGAGAUAGUCUUGCGCCCAACCAGAAAGUCUGUAAUCAUUUUAAGGGUA [U26C U72C A95G U108C] | 0.02
GCUAACGGUCAUAGGCCAUGGAAACUAGGAGCACCAUUUCGCUGCCAGUGAAGAAAUGAACAAAGAAAAUCUGGGCCAGGCAGGCGUCAGAAGAAAUAGUCUUGCGCUCAACCAGAAAGACUGUAAUCAUUUUAAGGGUA [U2C A86G A90G U120A] | 0.58
GUUAACGGUCAUAGGCCAUGGAAACUAGGAGCACCAUUUCGCUGCCAGUGAAGAAAUGAACAAAGAAAAUCAGGGCCAGGCAGGCAUCAAUAGAAAUAGUCCUGCGCUCAACCAGGAAGUCCGUAAUCAUUUUAAGGGUA [U72A A91U U102C A116G U122C] | 0.16
GUUAACGGUCAUAGGCCAUGGAAACUAGGAGCACCAUUUUGCUGCCAGUGAAGAAAUGAACGAAGAAAAUCUGGGCCAGGCAGGCACCAAAAGGAAUAGUCUUGCGCUCAACCAGAAAGUCUGUAAUCAUUUCAAGGGUA [C40U A62G U87C A94G U133C] | 0.56
GUUAGCGGUCAUAGGCCAUGGAAACUAGGAGCACCAUUUCGCUGCCAGCGAAGAAAUGAACAAAGAAAAUCUGGGCCAGGCGGGCAUCAAAAGAAAUAGUCUUGCGCUCAACCAGAAAGCCUGUAGUCAUUUUAAGGGUA [A5G U49C A82G U120C A126G] | 0.18
GUUAACGGUCAUAGGCCAUGGAAACUAGGAGCGCCAUUUCGCUGCCAGUGAAGAAAUGAACAAAGAAAAUCUGGGCCAGGCAGGCAUCAAAAGAAAUAGUCUUGUGCUCAACCAGAGCGUCUGUAAUCAUUUUAAGGGUA [A33G C105U A117G A118C] | 0.13
GUUAACGGUCGUAGGCCAUGGAAACUAGGAGCACCAUUUCGCUGCCAGUGAAGAAAUGAACAAAGAAAAUCUGGGCCAGGCAGGCAUCAAAAGAAAUAGUCUUGCGCUCGACCAGAAAGUCUGUAAUCACUUUAAGGGUA [A11G A110G U130C] | 0.04
GUUAACGGUCGUAGGCCAUGGAAACUAGGAGCACCAUCUCGCUGCCAGUGAAGAAAUGAACAAAGAAAAUCUGGGCCAGGCAGGCACCAAAAGAAAUAGUCUUGCGCUCAACCAGAAAGUCUGUAAUCAUUUUAAGGGUA [A11G U38C U87C] | 0.34
GUUAACGGUCAUAGGCCAUGGAAACUAGGUGCACCAUUUCGCUGCCAGUGGAGAAAUGAACAAAGAAAAUCUGGUCCAGGCAGGCAUCAAAAGAAAUGGUCUUGCGCUCAACCAGAAAGUCUGUAAUCAUUUUAAGGGUA [A30U A51G G75U A98G] | 0.05
GUUAACGGUCAUAGGCCAUGGAAACUAGGAGCACCAUUUCGCUGCCAGUGAAGAAAUGAACAAAGAAGACCUGGGCCAGGCAGGCAUCAAAAGAAGUAGUCUUGCGCUCAACCAGUAAGUCUGUAAUCAUUUUAAGGGUA [A68G U70C A96G A116U] | 0.04

Variant | self-cleavage
GUAAACGGUCAUAGGCCAUGGAAACUAGGAGCACCAUUCCGCAGCCAGUGAAGAAAUGGACAAAGAAAAUCUGGGCCAGGCAGGCAUCAAAAGAAAUAGUCUUGCGCUCAACCAGAAAGUCUGUACUCAUUUUAAGGGUA [U3A U39C U43A A59G A126C] | 0.62
GUUAACGGUCAUAGGCCAUGGAAACUAGGAGCACCAUUUCGCUGCCAAUGAAGAAAUGAGCAAAGAAAAUCUGGGCCAGGCAGGCAUCAAAAGAAAUAGUCCUGCGCUCAACCAGAAGGUCUGUAAUCAUUUUAAGGGUA [G48A A60G U102C A118G] | 1.7
GUUAACGGUCAUAGGCCAUGGAAACUAGGAGCGCCAUUUCGCUGCCAGUGUAGAAAUGAACAAAGAAAAUCUGGGCCAGGCAGGCAUCAAAAGAAAUAGUCUUGCGCUCAACCAGAAAGUCUGCAAUCAUUUCAAGGGUA [A33G A51U U124C U133C] | 0.3
GUUAACGGUCAUAGGCCAUGGAAACUAGGAGCACCAUUUCGCUGCCAGUGAAGAAAUUAACAAGGAAAACCUGGGCCAGGCAGGCAUCAAAAGAAAUAGUCUUGCGCUCAACCAGAAAGUCCGUAAUCAUUUUAAGGGUA [G58U A64G U70C U122C] | 0.3
GUUAACGGUCAUAGGCCAUGGUAACUAGGAGCACCAUUUCGCUGCCAGUGAAGAAAUGAACAAAGAAAAUCUGGGCCAGGCAGGCAUCGGAAGAAAUAGUCUUGCGCUCAACCAGAAAGUCUGUAAUCAUUUUAAAGGUA [A22U A89G A90G G136A] | 0.97
GUUAACGGUCAUAGGCCAUGGAAACUAGGGGCACCAUUUCGCUGCCAGUGAAGAAAUGAACAAAGAAAAUCUGGGCCAGGCAGGCAUCAAAAGAAAUAGUCUUGCGCUCAACCAGAAAGCCUGUAAUCAAUUUAAGGGUA [A30G U120C U130A] | 0.61
GUUAACGGUCAUAGGCCAUGGAAACUUGGAGCACCAUUCCGCUGCCAGUGAAGGAAUGAACGAAGAAAAUCUGGGCCAGGCAGGCAUCAAAAGAAAUAGUCUUGCGCUCAACCAGAAGGUCUGUAAUCAUCUUAAGGGUA [A27U U39C A54G A62G A118G U131C] | 1.72
GUUAACGGUCUUAGGCCAUGGAAACUAGGAGCACCAUUUCGCUGCCAGUGAAGAAAUGAACAAAGAGAAUCUGGGCCAGGCAGGCAUCAAAAGAAAUAGUCUUGCCCUCAACCAGAAAGUCUGUAAUCAUUUUAAGGGUA [A11U A67G G106C] | 0.01
GUUAACGGUCAUAGGCCGCGGAAACUAGGAGCACCAUUUCGCUGCCAGUGAAGAAAUGAACAAAGAAAAUCUGGGCCAGGCUGGCAUCAAAAGAAAUAGUCUUGCGCUCAACCAGAAAGCCUGUAAUCAUUUUAAGGGUA [A18G U19C A82U U120C] | 0.13
GUUAACGGUCAUAGGCCAUGGAAACUAGGAGCACCAUUCCGCUGCCAGUGAAGAAAUGAACAGAGAAAAUCUGGGCCAGGCAGGCAUCAAAAGAAAUAGUCUCGCGCCCAACCAGAAAGUCUGUAAUCAUUUUAAGGGUA [U39C A63G U103C U108C] | 0.01
GUUAACGGUCAUAGGCCAUGGAAACUAGGAGCAUCAUUUCGCUGCCAGUGAAGGAGUGAACAAAGAAAAUCUGGGCCAGGCAGGCAUAAAAAGAAAUAGUCUUGCGCUCAACCAGAAAGUCUGUAAUCAUUUUAAGGGUA [C34U A54G A56G C88A] | 1.85
GUUAACGGUCAUAGGCCAUGGAAACUAGGAGCACCAUUUCGCUGCCAGUGAAGAGAUGACCAAAGAGAAUCUGGGCCAGGCAGGCAUCAAAAGAAAUAGUCUUGCGCUCAACCAGAAAGUCUGUAAUCAUUUUAAGGGUA [A55G A60C A67G] | 1.16
GUUAACGGUCAUGGGCCAUGGAAACUAGGAGCACCAUCUCGCUGCCAGAGAAGAAAUGAACAAAGAAAAUCUGGGCCAGGCUGGCGUCAAAAGAAAUAGUCUUGCGCUCAACCAGAAAGUCUGUAGUCAUUUUAAGAGUA [A13G U38C U49A A82U A86G A126G G137A] | 0.13
GUUAACGGUCAUAGGCCAUGGAGACUAGGAGCACCAUUUCGCUGCCAGUGAAGAAAUGAACAAAGAAAAUCAGGGCCAGGCAGGCAUCAAAAGAAGUAGUCUUGCGCUCGACCAGAAAGUCUGUAAUCAUUUUAAGGGUA [A23G U72A A96G A110G] | 0.1
GUUAACGGUCAUAGGCCAUGGAAACUAGGAGCACCAUUUCGCUGCCAGUGAAGCAAUGAACAAAGGAAAUCUGGGCCAGGCAGGCAUCAAGAGAGAUAGUCUUGCGCUCAACCAGAAAGUCUGUAAUCAUUUUGAGGGUA [A54C A66G A91G A95G A134G] | 2.23
GUUAACGGUCAUAGACCAUGGAAACUAGGAGCGCCAUCUCGCUGCCAGCGAAGAAAUGAGCAAAGAAAAUUUGGGCCAGGCAGGCAUCAAAAGAAAUAGUCUUGCGCUCAACCAGAAAGUCUGUAAUCAUUUUAAGGGUA [G15A A33G U38C U49C A60G C71U] | 0.13
GUUAACGGUCAUAGGCCAUGGAAACUAGGAGCACCAUUUCGCUGCCAGUGAAGAAAUGAACAAAGAAAAUCUGGGCCAGGCUGGCAUCAAAAGUAAUAGUCUUGCGCUCAACCAGAAAGUCCGUAAUCAUUUUAAGGGUA [A82U A94U U122C] | 0.16
GUUAACGGUCAUAGGCCGUGGAGACUAGGAGCACCAUUUCGCUGCCAGUGAAGGAAUGAACAAAGAAAAUCUGGGCCUGGCAGGCAUCAAAAGAAAUAGUCUUGCGCACAACCAGAAAGUCUGUAAUCAUUUUAAGGGUA [A18G A23G A54G A78U U108A] | 0.03
GUUAACGGUCAUAGGCCACGGAAACUAGGAGCACCAUUUCGCUGCCAGCGAAGAAAUGUACAAGGAAAAUCUGGGCCAGGCAGGCAUCAAAAGAAAUAGUCUUGCGCUCAACCAGAAAGUCUGUAAUCAUUUUAAGGGUA [U19C U49C A59U A64G] | 1.1
GUUAACGGUCAUAGGCCAUGGGAACUAGGAGCACCAUUUCGCUGCCAGUGAAGAAAUGAACAAAGAAAAUCCGGGCCAGGCAGGCAUCAAAAGAGAUAGUCUUGCGCUCAACCAGAGAGUCUGUAAUCAUUUUAAGGGUA [A22G U72C A95G A117G] | 0.31
